# Patent US20260297081A1, “COMPOUNDS AND METHODS OF TREATING CANCERS” (Cullgen Inc., priority 2023, published 2026)
# The name of at least one read-out is uncertain.
# Test system: cyclin D1
# Assay: HiBiT detection of HiBiT-tagged cyclin D1 protein level in MCF7 cells, 16 hours (Table 8)
# Format: cell-based
# Details: 10 nM, MCF7 cells stably expressing HiBiT tagged target proteins
row,SMILES,% Cyclin D1 Relative Level (10 nM)
1,"CC(=O)c1c(C)c2cnc(Nc3ccc(N4CCN(CCC(=O)NC56CC(Nc7nc(NC(C)C)ccc7C(=O)Nc7ccc(N(C)C)nn7)(C5)C6)CC4)cn3)nc2n(C2CCCC2)c1=O [CPD-503, 2-((3-(3-(4-(6-((6-acetyl-8-cyclopentyl-5-methyl-7-oxo-7,8-dihydropyrido[2,3-d]pyrimidin-2-yl)amino)pyridin-3-yl)piperazin-1-yl)propanamido)bicyclo[1.1.1]pentan-1-yl)amino)-N-(6-(dimethylamino)pyridazin-3-yl)-6-(isopropylamino)nicotinamide]",B (55%< Relative protein level ≤85%)
2,"CC(=O)c1c(C)c2cnc(Nc3ccc(N4CCN(C(C)CC(=O)NC56CC(Nc7nc(NC(C)C)ccc7C(=O)Nc7ccc(N(C)C)nn7)(C5)C6)CC4)cn3)nc2n(C2CCCC2)c1=O (stereo not shown) [CPD-504, 2-((3-(3-(4-(6-((6-acetyl-8-cyclopentyl-5-methyl-7-oxo-7,8-dihydropyrido[2,3-d]pyrimidin-2-yl)amino)pyridin-3-yl)piperazin-1-yl)butanamido)bicyclo[1.1.1]pentan-1-yl)amino)-N-(6-(dimethylamino)pyridazin-3-yl)-6-(isopropylamino)nicotinamide]",B (55%< Relative protein level ≤85%)
3,"CC(=O)c1c(C)c2cnc(Nc3ccc(N4CCC(N(C)CC(=O)NC56CC(Nc7nc(NC(C)C)ccc7C(=O)Nc7ccc(N(C)C)nn7)(C5)C6)CC4)cn3)nc2n(C2CCCC2)c1=O [CPD-505, 2-((3-(2-((1-(6-((6-acetyl-8-cyclopentyl-5-methyl-7-oxo-7,8-dihydropyrido[2,3-d]pyrimidin-2-yl)amino)pyridin-3-yl)piperidin-4-yl)(methyl)amino)acetamido)bicyclo[1.1.1]pentan-1-yl)amino)-N-(6-(dimethylamino)pyridazin-3-yl)-6-(isopropylamino)nicotinamide]",A (Relative protein level ≤55%)
4,"CC(=O)c1c(C)c2cnc(Nc3ccc(N4CCN(CCNC(=O)C56CC(Nc7nc(NC(C)C)ccc7C(=O)Nc7ccc(N(C)C)nn7)(C5)C6)CC4)cn3)nc2n(C2CCCC2)c1=O [CPD-506, 2-((3-((2-(4-(6-((6-acetyl-8-cyclopentyl-5-methyl-7-oxo-7,8-dihydropyrido[2,3-d]pyrimidin-2-yl)amino)pyridin-3-yl)piperazin-1-yl)ethyl)carbamoyl)bicyclo[1.1.1]pentan-1-yl)amino)-N-(6-(dimethylamino)pyridazin-3-yl)-6-(isopropylamino)nicotinamide]",A (Relative protein level ≤55%)
5,"[2H]C([2H])([2H])Nc1ccc(C(=O)Nc2ccc(N(C)C)nn2)c(NC2CC3(C2)CN(CC(=O)N2CCC4(CCN(Cc5ccc(Nc6ncc7c(C)c(C(C)=O)c(=O)n(C8CCCC8)c7n6)nc5)C4)C2)C3)n1 (stereo not shown) [CPD-507, 2-((2-(2-(7-((6-((6-acetyl-8-cyclopentyl-5-methyl-7-oxo-7,8-dihydropyrido[2,3-d]pyrimidin-2-yl)amino)pyridin-3-yl)methyl)-2,7-diazaspiro[4.4]nonan-2-yl)-2-oxoethyl)-2-azaspiro[3.3]heptan-6-yl)amino)-N-(6-(dimethylamino)pyridazin-3-yl)-6-((methyl-d3)amino)nicotinamide]",C (Relative protein level >85%)
6,"CC(=O)c1c(C)c2cnc(Nc3ccc(CN4CC5(CN(CC(=O)N6CC7(CC(Nc8nc(NC(C)C)ccc8C(=O)Nc8ccc(N(C)C)nn8)C7)C6)C5)C4)cn3)nc2n(C2CCCC2)c1=O [CPD-508, 2-((2-(2-(6-((6-((6-acetyl-8-cyclopentyl-5-methyl-7-oxo-7,8-dihydropyrido[2,3-d]pyrimidin-2-yl)amino)pyridin-3-yl)methyl)-2,6-diazaspiro[3.3]heptan-2-yl)acetyl)-2-azaspiro[3.3]heptan-6-yl)amino)-N-(6-(dimethylamino)pyridazin-3-yl)-6-(isopropylamino)nicotinamide]",C (Relative protein level >85%)
7,"CC(=O)c1c(C)c2cnc(Nc3ccc(CN4CC5(CN(CC(=O)N6CCC(Nc7nc(NC(C)C)ccc7C(=O)Nc7ccc(N(C)C)nn7)CC6)C5)C4)cn3)nc2n(C2CCCC2)c1=O [CPD-509, 2-((1-(2-(6-((6-((6-acetyl-8-cyclopentyl-5-methyl-7-oxo-7,8-dihydropyrido[2,3-d]pyrimidin-2-yl)amino)pyridin-3-yl)methyl)-2,6-diazaspiro[3.3]heptan-2-yl)acetyl)piperidin-4-yl)amino)-N-(6-(dimethylamino)pyridazin-3-yl)-6-(isopropylamino)nicotinamide]",C (Relative protein level >85%)
8,"CC(=O)c1c(C)c2cnc(Nc3ccc(CN4CCN(C5CCN(C(=O)C6CC(Nc7nc(NC(C)C)ccc7C(=O)Nc7ccc(N(C)C)nn7)C6)C5)CC4)cn3)nc2n(C2CCCC2)c1=O (stereo not shown) [CPD-510, 2-((3-(3-(4-((6-((6-acetyl-8-cyclopentyl-5-methyl-7-oxo-7,8-dihydropyrido[2,3-d]pyrimidin-2-yl)amino)pyridin-3-yl)methyl)piperazin-1-yl)pyrrolidine-1-carbonyl)cyclobutyl)amino)-N-(6-(dimethylamino)pyridazin-3-yl)-6-(isopropylamino)nicotinamide]",C (Relative protein level >85%)
9,"CC(=O)c1c(C)c2cnc(Nc3ccc(CN4CCN(C5CCN(C(=O)C6CCC(Nc7nc(NC(C)C)ccc7C(=O)Nc7ccc(N(C)C)nn7)C6)C5)CC4)cn3)nc2n(C2CCCC2)c1=O (stereo not shown) [CPD-511, 2-((3-(3-(4-((6-((6-acetyl-8-cyclopentyl-5-methyl-7-oxo-7,8-dihydropyrido[2,3-d]pyrimidin-2-yl)amino)pyridin-3-yl)methyl)piperazin-1-yl)pyrrolidine-1-carbonyl)cyclopentyl)amino)-N-(6-(dimethylamino)pyridazin-3-yl)-6-(isopropylamino)nicotinamide]",C (Relative protein level >85%)
10,"CC(=O)c1c(C)c2cnc(Nc3ccc(CN4CCN(C5CCN(C(=O)[C@H]6CC[C@H](Nc7nc(NC(C)C)ccc7C(=O)Nc7ccc(N(C)C)nn7)CC6)C5)CC4)cn3)nc2n(C2CCCC2)c1=O (stereo partly shown) [CPD-512, 2-((4-(3-(4-((6-((6-acetyl-8-cyclopentyl-5-methyl-7-oxo-7,8-dihydropyrido[2,3-d]pyrimidin-2-yl)amino)pyridin-3-yl)methyl)piperazin-1-yl)pyrrolidine-1-carbonyl)cyclohexyl)amino)-N-(6-(dimethylamino)pyridazin-3-yl)-6-(isopropylamino)nicotinamide]",B (55%< Relative protein level ≤85%)
11,"CNc1ccc(C(=O)Nc2ccc(N(C)C)nn2)c(NC2CN(CC(=O)N3CCN(Cc4ccc(Nc5ncc6c(C)c(C(C)=O)c(=O)n(C7CCCC7)c6n5)nc4)CC3)C2)n1 [CPD-513, 2-((1-(2-(4-((6-((6-acetyl-8-cyclopentyl-5-methyl-7-oxo-7,8-dihydropyrido[2,3-d]pyrimidin-2-yl)amino)pyridin-3-yl)methyl)piperazin-1-yl)-2-oxoethyl)azetidin-3-yl)amino)-N-(6-(dimethylamino)pyridazin-3-yl)-6-(methylamino)nicotinamide]",C (Relative protein level >85%)

# Same assay, conditions: 100 nM, MCF7 cells stably expressing HiBiT tagged target proteins
row,SMILES,% Cyclin D1 Relative Level (100 nM)
1,"CC(=O)c1c(C)c2cnc(Nc3ccc(N4CCC(N(C)CC(=O)NC56CC(Nc7nc(NC(C)C)ccc7C(=O)Nc7ccc(N(C)C)nn7)(C5)C6)CC4)cn3)nc2n(C2CCCC2)c1=O [CPD-505, 2-((3-(2-((1-(6-((6-acetyl-8-cyclopentyl-5-methyl-7-oxo-7,8-dihydropyrido[2,3-d]pyrimidin-2-yl)amino)pyridin-3-yl)piperidin-4-yl)(methyl)amino)acetamido)bicyclo[1.1.1]pentan-1-yl)amino)-N-(6-(dimethylamino)pyridazin-3-yl)-6-(isopropylamino)nicotinamide]",A (Relative protein level ≤55%)
2,"CC(=O)c1c(C)c2cnc(Nc3ccc(N4CCN(CCNC(=O)C56CC(Nc7nc(NC(C)C)ccc7C(=O)Nc7ccc(N(C)C)nn7)(C5)C6)CC4)cn3)nc2n(C2CCCC2)c1=O [CPD-506, 2-((3-((2-(4-(6-((6-acetyl-8-cyclopentyl-5-methyl-7-oxo-7,8-dihydropyrido[2,3-d]pyrimidin-2-yl)amino)pyridin-3-yl)piperazin-1-yl)ethyl)carbamoyl)bicyclo[1.1.1]pentan-1-yl)amino)-N-(6-(dimethylamino)pyridazin-3-yl)-6-(isopropylamino)nicotinamide]",A (Relative protein level ≤55%)
